Values marked as one replicate rest on one cluster of the flow cell; about a third of the high ones do not repeat.
tested on: ATP; assay: switch fluorescence ratio, 500 uM ATP over buffer (Cy3 cluster intensity, sum of 5 cycles each) (fold (ratio)); higher = stronger signal-on switching upon ATP binding; sequences stand for … in TCGTCGGCAGCGTCAGATGTGTATAAGAGACAGTTTTTTTTTTTTTTTTTTTTTTTTT…TC; settings: aptamer strand: ATP DNA aptamer (quencher-CACCTGGGGGAGTATTGCGGAGGAAGG + anchor), 100 nM annealed; ATP concentration: 500 uM; one replicate
Outline: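 Imaging in selection buffer was followed by imaging after 15 min with 500 uM ATP at 22 °C, for Cy3-labelled switching-strand clusters annealed to 100 nM quencher-labelled ATP aptamer on a modified Illumina MiSeq flow-cell. Five of these buffer/ATP cycles ran, separated by NaOH stripping and re-annealing. The fluorescence ratio per cluster is summed target-cycle over summed buffer-cycle Cy3 intensity, averaged per switch-domain sequence; clusters outside 100-1000 RFU were removed.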
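Note: ATP exposure 15 min at 22 °C before imaging.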

Sequence	switch fluorescence ratio
TCGCGATGGG	1.09
TCGCGCGAAA	1.05
TCGCGCTGTG	1.01
TCGCGGACGT	1.05
TCGCGGGCGG	0.993
TCGCTGACAC	2.11
TCGCTGAGCA	1.01
TCGCTGCAGG	1.01
TCGCTTCTGA	0.959
TCGCTTTACG	1.21
TCGGAAGAGC	1.02
TCGGAATGCT	2.7
TCGGACGTGT	0.927
TCGGAGCAAT	1.64
TCGGATATCT	0.941
TCGGATGTAC	1.14
TCGGCCCTCA	1.02
TCGGCCTACC	1.24
TCGGCCTCCG	1.02
TCGGCGCACG	0.967
TCGGCGGACT	1.06
TCGGCTTCG	1.12
TCGGGCTAGT	0.93
TCGGGGATTG	0.966
TCGGGGT	1.02

Sequence	switch fluorescence ratio
TCGGGTATT	0.977
TCGGGTCCCG	0.969
TCGGGTCTTA	0.973
TCGGTAAACA	0.925
TCGGTAGCTT	0.992
TCGGTGAAGG	0.987
TCGGTTGCTT	0.938
TCGGTTTCGT	0.956
TCGTAAGAGA	1.01
TCGTAAGGCA	0.969
TCGTACCGCA	2.01
TCGTAGCGTG	0.99
TCGTAGGGCT	1
TCGTAGGGGC	1.05
TCGTAGTACG	0.983
TCGTATATCT	1.03
TCGTATGCCT	0.96
TCGTATGGTT	0.969
TCGTATTTAA	1.02
TCGTCATGGT	1.05
TCGTCATTTG	0.988
TCGTCGTT	1.01
TCGTCGTTGA	1
TCGTGAACT	0.951
TCGTGACTCA	1.13

Sequence	switch fluorescence ratio
TCGTGCAGCA	1.02
TCGTGCCACG	0.934
TCGTGCCACT	0.987
TCGTGCGCAG	1.12
TCGTGCGCGG	1.02
TCGTGGCATC	1.07
TCGTGTCGGT	0.992
TCGTGTTTGC	0.996
TCGTTAAAGC	1.01
TCGTTAGGAC	0.983
TCGTTCGTTT	0.98
TCGTTCTGCT	1
TCGTTCTTCC	1.74
TCGTTGAGAA	1
TCGTTGCTC	0.984
TCGTTGTCAC	0.955
TCGTTGTGG	0.991
TCGTTGTTGT	0.976
TCGTTTAATC	1
TCGTTTTCCG	0.956
TCTAAATTCT	1
TCTAAGAACC	1.03
TCTAAGCCTG	1.03
TCTAAGTGCT	0.973
TCTACCTAGT	1.05

Sequence	switch fluorescence ratio
TCTACGCCTT	1.63
TCTACTTTTC	1.05
TCTAGAAATT	0.982
TCTAGACGGG	1.01
TCTAGGGGAC	1.05
TCTAGGGGTT	1.02
TCTAGTCCGG	0.973
TCTAGTGAG	0.993
TCTATACTCA	1.05
TCTATAGGTC	1.04
TCTATATCTG	1
TCTATATGAG	0.994
TCTATCGA	0.958
TCTATTCATA	1.01
TCTATTCCA	1.01
TCTATTGCTT	0.986
TCTCACGATC	1.28
TCTCACTCTC	1.02
TCTCAGTGGT	1.02
TCTCATATAG	0.975
TCTCATGTCG	1.04
TCTCCAACCC	1.14
TCTCCACCTT	1.59
TCTCCCCGGA	1.09
TCTCGCACG	1.08
